The source of these data is patent publication US20230322887A1 (SHANGHAI MINWEI BIOTECHNOLOGY, published 2023).

B1: Fc fusion protein 1 (Fc fusion)
chain: HSQGTFTSDYSKYLDEQAAKEFIAWLIAGGPSSGAPPPSGGGGGSGGGGSGGGGSA[human IgG4 Fc with S228P F234A L235A (EU numbers) omitted]
B2: Fc fusion protein 2 (Fc fusion)
chain: B1 chain with A18R, E21D
B3: Fc fusion protein 3 (Fc fusion)
chain: B1 chain with A18R, I23V

Where a chain is given by its changes, count along the chain named.

One experiment has as its target human glucagon receptor (human, UniProt P47871). In words: cell-based or functional assay.
Take B1: the “EC50 human glucagon-R (CRE-luciferase reporter cells)” value (“EC50 human glucagon-R” for short) stood at 0.32 nM.

For B2, the “EC50 human glucagon-R” value came out at 0.59 nM.

As for B3, the “EC50 human glucagon-R” value was 0.63 nM.

Another experiment has as its target human GLP-1 receptor (human, UniProt P43220). In words: cell-based or functional assay.
On to B1, for which the “EC50 human GLP-1R (CRE-luciferase reporter cells)” value (from here on “EC50 human GLP-1R”) was 0.57 nM.

Turning to B2, the “EC50 human GLP-1R” value worked out at 1.23 nM.

As for B3, the “EC50 human GLP-1R” value was 3.49 nM.
